From PubChem BioAssay AID686978 (National Center for Advancing Translational Sciences (NCATS), 2013)
Screen size: about 420,000 compounds; about 64,000 (15%) were called active. Inconclusive results, whose numbers are uncertain, are shown with a selection of clear calls. Calls follow the shape of the dose curve; as a rule, active = well fitted inhibition curve with a large enough effect; inconclusive = small, poorly fitted or top-dose-only effect; inactive = flat fitted curve, though single readings scatter. No potency is given beside an inconclusive call; the fits are too rough.

Experiment: qHTS for Inhibitors of human tyrosyl-DNA phosphodiesterase 1 (TDP1): qHTS in cells in absence of CPT; also: nearly all actives have a fitted effect of over 55% in size
Conditions: DT40 Tdp1-/- hTDP1 cells, no CPT, ATP luminescence, 48 h; series mostly up to 46.2 µM
Outline: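 A cellular qHTS used chicken DT40 cells lacking endogenous Tdp1 but carrying stably transfected human TDP1. Compounds were applied without camptothecin, and cell growth kinetics were judged by ATP-dependent luminescence after ≥48 hr.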
Potency is read from the fitted curve at half-maximal effect; tags tell the direction and shape of the fitted curve.

SMILES	Potency
Cc1ccc(CN2CCC[C@]3(N[C@H](c4ccc(C)cc4)[C@@H]4C(=O)N(C)C(=O)[C@@H]43)C2=O)cc1	inconclusive [inhibitor, partial curve]
CCNc1nc(SCCOc2ccc(C)cc2)nc(N(C)C)n1	active: 20.6 µM
CC(C)(O)C#Cc1ccc(C(=O)NCCN2Cc3ccccc3OC(c3ccccc3F)C2)o1 (stereo not drawn)	inactive
COCCNc1nc2c(c(=O)n(C)c(=O)n2C)n1CCCc1ccccc1	active: 10.3 µM
COc1ccc(OC)c(NC(=O)N2c3ccccc3Sc3ccccc32)c1	inconclusive [inhibitor, single point]
Cc1ccc(CS/C(Nc2ccccc2C)=C(\C#N)C(N)=O)c(C)c1	inconclusive [inhibitor, single point]
CC(=O)Nc1ccc(OCCC[n+]2cccc(C(=O)[O-])c2)cc1	inactive
CCN(CC)c1ccc(NC(=O)C2CCC(CNc3c(N4CCCC4)c(=O)c3=O)CC2)c(C)c1 (stereo not drawn)	active: 14.6 µM
O=C(c1ccc(NC2=NC3CS(=O)(=O)CC3S2)cc1)N1CCN(c2ccc([N+](=O)[O-])cc2)CC1 (stereo not drawn)	inactive
Cc1nn(CCC(=O)N2CCN(c3ccccc3)CC2)c(C)c1S(=O)(=O)N1CCCC1	inconclusive [inhibitor, partial curve]
Brc1ccccc1OCCOCCOc1cccc2cccnc12	inconclusive [inhibitor, partial curve, poor fit]
CC1(C(=O)NCC2CC2)CCN1C(=O)C/C=C/c1ccccc1 (stereo not drawn)	inconclusive [inhibitor, single point]
COCCCN1C(=O)C(CC(=O)NC2CCCCC2)CC(C(=O)N(C(C)C)C(C)C)=C1C (stereo not drawn)	inactive
CN(C)c1ccc(-c2ccnc3c2CC(C)(C(=O)Nc2cccc(C(F)(F)F)c2)O3)cc1 (stereo not drawn)	inconclusive [inhibitor, single point]
Cc1ccccc1-n1c(=O)[nH]c(=O)c2c(N)c(C(=O)c3ccc(Cl)cc3)sc21	inconclusive [inhibitor, single point]
CCOc1ccc(Nc2nc(N)nc(CN3CCN(c4ccccc4F)CC3)n2)cc1	active: 18.4 µM
CCCCN(C=O)c1c(CC)nc2c(OCc3cccc(Cl)c3)cccn12	inconclusive [inhibitor, single point]
CN(CC(=O)Nc1ccc(Cl)c(C(F)(F)F)c1)C(=O)c1ccccc1SCC(=O)N1CCCC1	inconclusive [inhibitor, partial curve, poor fit]
Cc1ccc(-n2nnc3c(=O)n(CC(=O)N4CCC(C)CC4)cnc32)cc1	inconclusive [inhibitor, single point]
CS(=O)(=O)N1CCCCC1c1cc(C(=O)Nc2cccc3c2CCCC3)no1 (stereo not drawn)	active: 9.2 µM
Cc1ccccc1-c1cc2nc(NCc3cccnc3)n(C)c(=O)c2s1	inconclusive [inhibitor, single point]
O=C(Oc1cccc(-n2cnnn2)c1)c1ccco1	inconclusive [inhibitor, partial curve, poor fit]

SMILES	Potency
CCN1CCN(c2cc(C)c3cc(NC(=O)c4cncc(Br)c4)ccc3n2)CC1	inconclusive [inhibitor, single point]
O=C1COc2ccc(C(=O)COc3ccc(Cl)cc3Br)cc2N1	inconclusive [inhibitor, single point]
COc1ccc2c(CC(=O)N3CCc4cc(OC)c(OC)cc4C3)coc2c1	inactive
CC(CC(=O)O)Nc1ccccc1O (stereo not drawn)	inconclusive [inhibitor, single point]
Cc1ccc(NC(=O)CN2CCCC2c2cccs2)cc1S(=O)(=O)N1CCCCC1 (stereo not drawn)	active: 23.1 µM
COc1ccc(Cn2ccc3nc(C)c(C(=O)Nc4ccc(OC(F)(F)F)cc4)cc3c2=O)cc1	inconclusive [inhibitor, single point]
COc1cc(NC(=O)Cc2ccccc2)ccc1NC(=O)c1ccccc1	inconclusive [inhibitor, single point]
N#C/C(=C\c1cccs1)C(=O)NCc1cccnc1	inactive
Cc1ccc(NC(=O)CCN2C(=O)c3cccc([N+](=O)[O-])c3C2=O)c(Br)c1	inconclusive [inhibitor, single point]
O=C(c1cccc(C(F)(F)F)c1)N1CCN(S(=O)(=O)c2ccc(Cl)s2)CC1	inconclusive [inhibitor, partial curve]
COc1ccc(C(=O)OCC(=O)NCC2CCCCC2)c(OC)c1	inconclusive [inhibitor, single point]
CC(=O)c1cccc(NC(=O)c2ccc(C)o2)c1	inconclusive [inhibitor, single point]
O=C(O)c1cc(NCc2cc(O)ccc2O)ccc1O	inconclusive [inhibitor, single point]
O=C(NCc1ccccc1)c1ccc(NC(=O)C2CCCCC2)cc1	inactive
CCn1c(SCC(=O)O)nnc1-c1cccnc1	inactive
CCOC(=O)c1[nH]c(C)c(C(=O)OCC(=O)N2c3ccccc3CC2C)c1C (stereo not drawn)	inconclusive [inhibitor, single point]
Cc1ccc(C)c(-c2csc(NC(=O)c3c(C)noc3C)n2)c1	inconclusive [inhibitor, partial curve]
COc1ccccc1OCc1nnc(SCC(=O)c2cc(Cl)ccc2OC)o1	inconclusive [inhibitor, single point]
CS(=O)(=O)c1ccc(NC(=O)COc2ccccc2C(=O)Nc2ccccc2)cc1	inconclusive [inhibitor, single point]
Cc1cc(NC(=O)Cn2nnc3sc4c(c3c2=O)CCC(C(C)(C)C)C4)no1 (stereo not drawn)	inconclusive [inhibitor, single point]
CCOC(=O)c1c(Nc2cc(C)cc(C)c2)nnc(-c2ccccc2)c1-c1ccccc1	active: 14.6 µM
